The list shows a part of the results. The energies were worked out here from pooled read counts, against the library average; single values are noisy.
What follows are sequences tested against T1, Pho4 (S. cerevisiae) (UniProt P07270) (assay: relative binding free energy (BET-seq); higher = weaker binding). Conditions: reference: library average.
T1 sequence: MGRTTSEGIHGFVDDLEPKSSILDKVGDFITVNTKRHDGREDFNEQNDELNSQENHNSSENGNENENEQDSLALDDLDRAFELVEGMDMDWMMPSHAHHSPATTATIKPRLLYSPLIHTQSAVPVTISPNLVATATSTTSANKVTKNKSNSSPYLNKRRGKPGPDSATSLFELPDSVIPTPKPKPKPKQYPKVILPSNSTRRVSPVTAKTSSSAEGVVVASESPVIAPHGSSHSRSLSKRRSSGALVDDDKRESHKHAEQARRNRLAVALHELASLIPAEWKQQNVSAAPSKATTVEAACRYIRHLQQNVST

Sequence	relative binding free energy [kcal/mol]
AGGTACACGTGAGTTA	0.41
TGATCCACGTGGTGGT	-0.03
CGATGCACGTGTAGTT	0.13
GTAATCACGTGATGTA	0.28
GTGTGCACGTGGCATG	-0.2
TTTTTCACGTGAGAGG	0.47
TTCTTCACGTGTAAGA	0.35
CGAGACACGTGGGATG	-0.06
AGGTACACGTGTGCGG	-0.02
TCAATCACGTGTTGGA	0.26
TGTTACACGTGGGCTG	-0.12
GCTAGCACGTGTGGGC	0.07
GGTTTCACGTGGTGGT	0.38
AACTTCACGTGTAGGG	0.17
CGTAGCACGTGTGTGT	-0.08
ATTTGCACGTGGATAG	0.06
GGTCTCACGTGAGTGT	0.34
GTTTTCACGTGAGAGT	0.61
ACGGGCACGTGGGGTT	-0.25
TTTAGCACGTGATAAG	-0.06
TTCGCCACGTGTGGTT	0.04
ATTATCACGTGTGATT	0.24
TGTTCCACGTGAATTA	0.43

Sequence	relative binding free energy [kcal/mol]
TTCGACACGTGGGGTT	-0.04
TAATGCACGTGGGGAA	-0.15
GGTGGCACGTGAGGGC	0.14
TTGGCCACGTGTGTTA	0.09
ATTAGCACGTGGTTTC	-0.12
TGGGGCACGTGGGCTT	-0.16
TGAGTCACGTGGGCTA	-0.03
CGGTGCACGTGAAGGA	0.1
AGATGCACGTGTAGGC	-0.01
GTCGGCACGTGTTCGG	-0.15
GCTGGCACGTGGTGGC	-0.06
TTACGCACGTGTGAGA	0.17
GATAGCACGTGATTTG	0.05
TAGTTCACGTGGTTTG	0.33
TTAAACACGTGTAATT	0.09
AGGCTCACGTGGGGAT	0.06
GGTGTCACGTGAGATG	0.42
AGATTCACGTGTTCGG	0.23
GATAGCACGTGGGGGG	-0.17
CTTGCCACGTGTGTGT	-0.25
CTGGGCACGTGCGGGA	-0.15
ACTTTCACGTGTGTAA	0.2
GTTCGCACGTGTGGTT	0.09

Sequence	relative binding free energy [kcal/mol]
TGGGACACGTGGGGTC	-0.11
CGTGTCACGTGTTTTT	0.12
TAGATCACGTGGGACT	0.1
GAGGGCACGTGAGGGA	0.13
ATTTGCACGTGATTAC	0.16
TCTGGCACGTGGCTTG	-0.09
GCGGTCACGTGGAGTA	0.12
CAGTACACGTGGTAGG	0
TACAGCACGTGGGCGG	-0.35
TGCGTCACGTGGAGTC	0.12
TTATGCACGTGGGGAT	-0.09
TTAGGCACGTGTCGTT	0.01
GTTATCACGTGCGGTT	0.24
GTTCTCACGTGCTTGG	0.21
TGAAGCACGTGCGTGA	-0.07
TAGAACACGTGGGGTA	-0.12
AGTGTCACGTGGCGTC	-0.1
TTGGACACGTGGCGTC	-0.09
TTGGTCACGTGTCTGG	0.16
TGGTTCACGTGGGTCC	0.15
AGGAGCACGTGATCGG	-0.02
ATGTTCACGTGCAATT	0.22
TAGTGCACGTGAAGCG	0.3

Sequence	relative binding free energy [kcal/mol]
TGTGGCACGTGCAGGT	-0.12
AACTTCACGTGGTTTT	0.21
TAGCACACGTGATGGG	0.25
GAATGCACGTGGTCAT	0.09
GGTAGCACGTGTCGAG	-0.03
TAACACACGTGGTGGG	-0.03
AATGGCACGTGTTAGC	-0.11
GGTGCCACGTGTGGCA	-0.02
TGAGTCACGTGCGGAG	-0.01
TGGCACACGTGGAGGG	0.03
GATGCCACGTGGTAGT	-0.03
TTATGCACGTGGACGG	0.01
AGGCGCACGTGCGGTG	-0.05
ACTGGCACGTGGTAGA	-0.13
TATTGCACGTGGGTGC	-0.13
AGAGGCACGTGTTACG	-0.12
TGATGCACGTGTGGTT	0.04
TTATGCACGTGGTTGT	-0.01
ATTAACACGTGGTGTC	-0.12
TGAGACACGTGTAGTG	0.07
AACGTCACGTGTGGTA	0.14
TGGAACACGTGGTTCA	0.1
ACTTGCACGTGATTGG	0.16

Sequence	relative binding free energy [kcal/mol]
TTGTACACGTGGGGGC	-0.13
ATGAGCACGTGTAGCG	-0.03
TGGCCCACGTGGGGGC	-0.33
GTTGGCACGTGACTAG	0.09
GATATCACGTGAGATG	0.4
GACTGCACGTGGTAGT	0.02
GTTGGCACGTGTTAGG	-0.02
TTATTCACGTGCAGTT	0.28
TGTTTCACGTGTATTT	0.25
ACGTGCACGTGAGGCT	0.16
TTCTTCACGTGTTGTG	0.23
TGTCACACGTGTTCGG	0.14
GGGGTCACGTGGCTAA	0.04
GTTGTCACGTGCATAT	0.12
ACTGGCACGTGTGCTG	-0.13
TAGTGCACGTGAGAGG	0.13
ATAGACACGTGTGATA	0.07
TTAATCACGTGATTAA	0.18
AGGGCCACGTGGCTGT	-0.08
GGGCACACGTGGGTAG	-0.04
AAAGGCACGTGGGAAT	-0.07
TAGGGCACGTGGGCGC	-0.26
TGTACCACGTGGGGCA	-0.23

Reference: the BET-seq Pho4 binding data (Le et al. 2018)
